# Where “and” joins values, the source holds several entries; their conditions need not be identical. Identical values can stand only once. Inconclusive means that the source gave no clear call. Such entries were picked first, then a sample of the others. Potencies of inconclusive entries are doubtful fits and often do not repeat. Where a structure was tested more than once in an assay, its records may differ in their call. Calls of active or inactive are those of the source. Unless noted, the call rests on the fitted dose curve; in most records, active means well fitted curve in the direction sought with a large enough effect in the repeat runs; inconclusive means weak or mixed curves; inactive means no such curve, though single readings can be large; an effect the other way counts as inactive or inconclusive.
# Assays:
# [1] = qHTS assay to identify small molecule antagonists of the sonic hedgehog signaling (Shh) pathway - cell viability counter screen (AID 1259367); further: nearly all actives have a fitted effect of over 55% in size
# Summary of the method: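 Using CellTiter-Fluor, viability of Gli1-Luc reporter 3T3 cells is read by fluorescence in the wells used for the Shh luciferase assay. Treatment lasts 23 hr with conditioned medium, then reagent 1 hr at 37C.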
# [2] = qHTS assay to identify small molecule agonists of the sonic hedgehog signaling (Shh) pathway - cell viability counter screen (AID 1259366); further: nearly all actives have a fitted effect of over 50% in size
# Summary of the method: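 Cytotoxicity counter screen run in the same wells as the Shh reporter assay. NIH/3T3 cells carrying a Gli1 response element–driven luciferase were treated with DMSO-dissolved compounds for 24hr, and live-cell protease activity was measured with CellTiter-Fluor.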
# [3] = qHTS assay to identify small molecule agonists of the sonic hedgehog signaling (Shh) pathway (AID 1259368; calls by dose curve; further: nearly all actives have a fitted effect of over 15% in size)
# Summary of the method: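 A Gli1 transcriptional response element controlled firefly luciferase in 3T3Gli1-Luc cells. Compounds and a positive control were added 4 hr after plating, and cells were incubated a further 24 hr at 37 C before luminescence detection.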
# [4] = qHTS assay to identify small molecule antagonists of the sonic hedgehog signaling (Shh) pathway (AID 1259369; calls by dose curve; further: nearly all actives have a fitted effect of over 45% in size)
# Summary of the method: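 For antagonist detection, the reporter line received test compounds together with conditioned medium, incubated 24hr at 37 C, 5% CO2, then luminescence was recorded following 30min room-temperature luciferase reagent incubation.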
# Potency means the concentration at half of the fitted maximal effect; tags describe the fitted curve by direction and shape.
smiles,measurement,setting,value
CCCCCCCC/C=C\CCCCCCCC(=O)OCC,Potency,[1],inactive
Cc1ccc2c(Br)cc(Br)c(O)c2n1,Potency,[2],"inconclusive: 29.8 µM [rising, partial curve]"
same,Potency,[3],"inconclusive: 33.5 µM [activator, single point]"
same,Potency,[4],"inconclusive: 7.5 µM [inhibitor, full curve]"
OCCOCCOCCOCCOCCO,Potency,[2],"inconclusive: 62.3 µM [cytotoxic, partial curve] and inactive"
same,Potency,[1],"inconclusive: 69.9 µM [cytotoxic, single point]"
same,Potency,[4],"inconclusive: 24.8 µM [inhibitor, full curve]"
COc1ccccc1NC(=O)c1cc2ccccc2cc1O,Potency,[2],"inconclusive: 48.6 µM [rising, partial curve]"
same,Potency,[4],active: 27.3 µM
Cc1cccc(C)c1OCC(=O)N[C@@H](Cc1ccccc1)[C@@H](O)C[C@H](Cc1ccccc1)NC(=O)[C@H](C(C)C)N1CCCNC1=O,Potency,[2],active: 15 µM
same,Potency,[1],active: 23.7 µM
same,Potency,[4],active: 29.8 µM
Oc1ccc2c(c1)OCO2,Potency,[2],inactive
same,Potency,[4],"inconclusive: 24.1 µM [inhibitor, single point]"
Cc1c(C)c2c(c(C)c1OC(=O)CCC(=O)O)CC[C@@](C)(CCC[C@H](C)CCC[C@H](C)CCCC(C)C)O2,Potency,[2],inactive
same,Potency,[4],inactive
CN(N=O)C(=O)N[C@@H]1[C@@H](O)[C@H](O)[C@@H](CO)O[C@@H]1O,Potency,[2],inactive
same,Potency,[4],"inactive and inconclusive: 298 nM [inhibitor, single point]"
OCCN1CCN(CCCN2c3ccccc3Sc3ccc(Cl)cc32)CC1,Potency,[2],active: 13.3 µM
same,Potency,[4],active: 11.9 µM
CCCCOCCOC(=O)c1ccccc1C(=O)OCCOCCCC,Potency,[2],"inconclusive: 67.1 µM [cytotoxic, single point]"
same,Potency,[1],active: 53.3 µM
same,Potency,[4],"inconclusive: 24.3 µM [inhibitor, single point]"
CC1=C(/C=C/C(C)=C/C=C/C(C)=C/C(=O)O)C(C)(C)CCC1,Potency,[2],"inconclusive: 68.7 µM [cytotoxic, partial curve, poor fit]"
same,Potency,[3],"inconclusive: 10.9 µM [activator, full curve, poor fit] and inconclusive: 30.6 µM [activator, partial curve] and inconclusive: 10.6 µM [activator, partial curve, poor fit]"
same,Potency,[4],"inconclusive: 5.45 µM [inhibitor, full curve]"
CC/C=C1/OC(=O)c2ccccc21,Potency,[2],"inconclusive: 67 µM [cytotoxic, single point]"
same,Potency,[1],"inconclusive: 59.7 µM [cytotoxic, single point]"
same,Potency,[4],"inconclusive: 13.4 µM [inhibitor, full curve, poor fit]"
Clc1cccc(Cl)c1NC1=NCCN1,Potency,[1],inactive
CCc1cc(Cl)c(OC)c(C(=O)NC[C@@H]2CCCN2CC)c1O,Potency,[2],inactive
same,Potency,[4],"inconclusive: 1.19 µM [inhibitor, single point]"
O=C(O)c1cn(C2CC2)c2cc(N3CCNCC3)c(F)cc2c1=O,Potency,[2],inactive
same,Potency,[4],inactive
O=C=Nc1ccc(Cl)c(Cl)c1,Potency,[2],inactive
same,Potency,[4],inactive
C=CC(=O)OCC1CC2CC1C1CCC(COC(=O)C=C)C21 (stereo unspecified),Potency,[2],"inconclusive: 68.6 µM [cytotoxic, single point]"
same,Potency,[1],"inconclusive: 68.6 µM [cytotoxic, single point]"
same,Potency,[4],active: 19.3 µM
CC(=O)N/N=C/c1ccc([N+](=O)[O-])o1,Potency,[2],"inconclusive: 33.5 µM [cytotoxic, single point]"
same,Potency,[4],active: 26.6 µM
Cc1nc(Nc2ncc(C(=O)Nc3c(C)cccc3Cl)s2)cc(N2CCN(CCO)CC2)n1,Potency,[1],"inconclusive: 3.76 µM [cytotoxic, partial curve]"
c1ccc2cc3c(ccc4ccccc43)cc2c1,Potency,[2],inactive
same,Potency,[3],"inconclusive: 27.3 µM [activator, partial curve]"
CC(C)CC(C)O (stereo unspecified),Potency,[1],"inconclusive: 77 µM [cytotoxic, single point]"
COC(=O)[C@H]1[C@H]2C[C@@H]3c4[nH]c5cc(OC)ccc5c4CCN3C[C@H]2C[C@@H](OC(=O)/C=C/c2ccc(O)c(OC)c2)[C@@H]1OC,Potency,[2],inactive
same,Potency,[4],"inconclusive: 3.35 µM [inhibitor, full curve, poor fit]"
CC(C(O)c1ccccc1)N(C)CCOC(c1ccccc1)c1ccccc1 (stereo unspecified),Potency,[2],"inconclusive: 33.5 µM [cytotoxic, single point]"
same,Potency,[1],"inconclusive: 33.5 µM [cytotoxic, single point]"
same,Potency,[4],active: 21.1 µM
CC(=O)N[C@@H](CS)C(=O)O,Potency,[1],inactive
CNC(=S)NN,Potency,[2],active: 30.6 µM
same,Potency,[4],active: 3.44 µM
OCC(CO)(CO)CO,Potency,[1],inactive
CCOC(=O)c1ccc(OCCN2C[C@H](O)[C@@H](O)[C@H](O)[C@H]2CO)cc1,Potency,[1],inactive
CC(C=O)Cc1ccc(C(C)(C)C)cc1 (stereo unspecified),Potency,[2],inactive
same,Potency,[4],"inconclusive: 68.5 µM [inhibitor, partial curve, poor fit]"
O=C(/C=C/c1ccccc1)OCc1ccccc1,Potency,[1],inactive
OC[C@@H](O)[C@@H](O)[C@H](O)[C@@H](O)CO,Potency,[1],inactive
CCCCCCc1ccc(O)cc1O,Potency,[1],"inconclusive: 48.7 µM [cytotoxic, partial curve] and active: 61.1 µM"
same,Potency,[4],"inconclusive: 54.5 µM [inhibitor, partial curve] and inconclusive: 119 nM [inhibitor, single point]"
CCCCCCCCCC=O,Potency,[1],inactive
NC(=O)c1ccccc1N,Potency,[1],inactive
CN1C(=O)c2ccccc2C1=O,Potency,[1],"inconclusive: 68.6 µM [cytotoxic, single point]"
same,Potency,[4],active: 43.3 µM
O=c1[nH]ncc2ccccc12,Potency,[1],inactive
same,Potency,[4],"inconclusive: 0.536 µM [inhibitor, single point]"
CN(C)CCOC(c1ccccc1)c1ccccc1 (tested in a mixture with another compound),Potency,[1],active: 61.6 µM
Clc1ccnc(Cl)n1,Potency,[1],"inconclusive: 55.3 µM [cytotoxic, single point]"
same,Potency,[4],"inconclusive: 22 µM [inhibitor, full curve, poor fit]"
O=C(OCc1ccccc1)c1ccc(O)cc1,Potency,[1],active: 68.6 µM and inactive
NNC(=O)CP(=O)(c1ccccc1)c1ccccc1,Potency,[1],inactive
CC(C)c1ccc2c(c1)CC[C@H]1[C@](C)(CN)CCC[C@]21C,Potency,[1],"inconclusive: 68.6 µM [cytotoxic, single point]"
same,Potency,[4],active: 15.4 µM
FC(F)(F)c1ccccc1Cl,Potency,[1],inactive
Cc1ccccc1N=C(N)Nc1ccccc1C,Potency,[1],"inconclusive: 33.7 µM [cytotoxic, partial curve, poor fit]"
same,Potency,[4],"inconclusive: 15.1 µM [inhibitor, full curve]"
CCOC(=O)[C@@](C)(N)Cc1ccc(O)c(O)c1,Potency,[1],"inconclusive: 33.5 µM [cytotoxic, single point]"
same,Potency,[3],"inconclusive: 23.7 µM [activator, partial curve]"
same,Potency,[4],"inconclusive: 29.8 µM [inhibitor, single point]"
Cc1cc(=O)oc2cc(O)ccc12,Potency,[1],inconclusive: 30.6 µM and inconclusive: 61.1 µM
CC1(C)O[C@@H]2C[C@H]3[C@@H]4C[C@H](F)C5=CC(=O)C=C[C@]5(C)[C@@]4(F)[C@@H](O)C[C@]3(C)[C@]2(C(=O)CO)O1,Potency,[1],inactive
same,Potency,[4],inconclusive: 77 µM [inhibitor]
O=C(O)Cc1ccc(OCCNC[C@H](O)c2ccccc2)cc1,Potency,[1],"inconclusive: 33.5 µM [cytotoxic, single point]"
same,Potency,[4],"inconclusive: 33.5 µM [inhibitor, single point]"
O,Potency,[1],"inconclusive: 68.1 µM [cytotoxic, single point] and inactive"
same,Potency,[4],"inconclusive: 54.1 µM [inhibitor, partial curve, poor fit] and inconclusive: 246 nM [inhibitor, single point]"
COc1ccc2sc(C(=O)Nc3nnn[nH]3)c(OC(C)C)c2c1,Potency,[1],"inconclusive: 19.3 µM [cytotoxic, full curve]"
CC/C=C\C/C=C\C/C=C\CCCCCCCC(=O)O,Potency,[1],"inconclusive: 68.6 µM [cytotoxic, single point]"
CC1Cc2ccccc2N1NC(=O)c1ccc(Cl)c(S(N)(=O)=O)c1 (stereo unspecified),Potency,[1],"inconclusive: 54.5 µM [cytotoxic, partial curve, poor fit]"
C=C(C)C(=O)OCC[N+](C)(C)C,Potency,[1],"inconclusive: 68.3 µM [cytotoxic, partial curve, poor fit]"
C/C=C/C=C/COC(=O)C(C)C,Potency,[1],"inconclusive: 61.1 µM [cytotoxic, partial curve, poor fit]"
COc1cccc(O)c1O,Potency,[1],active: 56.6 µM
same,Potency,[4],active: 8.97 µM
O=Cc1ccccc1O,Potency,[1],inactive
COc1cc(C(=O)NC2CCCNC2)cc(OC)c1OC (stereo unspecified),Potency,[1],inactive
CN1CCN(CCCN2c3ccccc3Sc3ccc(S(=O)(=O)N(C)C)cc32)CC1,Potency,[1],"inconclusive: 9.44 µM [cytotoxic, full curve]"
same,Potency,[4],active: 13.3 µM
CC(=O)Oc1ccc(C2(c3ccc(OC(C)=O)cc3)Oc3ccccc3NC2=O)cc1,Potency,[1],"inconclusive: 13.3 µM [cytotoxic, full curve, poor fit]"
Cc1cc(O)ccc1O,Potency,[1],"inconclusive: 69.4 µM [cytotoxic, single point]"
same,Potency,[4],"inconclusive: 69.4 µM [inhibitor, partial curve, poor fit]"

# From PubChem BioAssay (Tox21)
